# Source: PubChem BioAssay AID588342 (National Center for Advancing Translational Sciences (NCATS), 2011)
# Among all 360,000 compounds or so, about 25,000 (6.9%) were called active. The inconclusive results got no clear call from the source; some entries with a clear call stand among them for comparison. Calls follow the shape of the dose curve; as a rule, active = well fitted inhibition curve with a large enough effect; inconclusive = small, poorly fitted or top-dose-only effect; inactive = flat fitted curve, though single readings scatter. Potencies of inconclusive entries are doubtful fits and often do not repeat. Where a structure was tested more than once in an assay, its records may differ in their call.
# Target: Luciferin 4-monooxygenase (Photinus pyralis) (UniProt P08659)
# UniProt P08659, sequence (P08659 whole entry, looked up): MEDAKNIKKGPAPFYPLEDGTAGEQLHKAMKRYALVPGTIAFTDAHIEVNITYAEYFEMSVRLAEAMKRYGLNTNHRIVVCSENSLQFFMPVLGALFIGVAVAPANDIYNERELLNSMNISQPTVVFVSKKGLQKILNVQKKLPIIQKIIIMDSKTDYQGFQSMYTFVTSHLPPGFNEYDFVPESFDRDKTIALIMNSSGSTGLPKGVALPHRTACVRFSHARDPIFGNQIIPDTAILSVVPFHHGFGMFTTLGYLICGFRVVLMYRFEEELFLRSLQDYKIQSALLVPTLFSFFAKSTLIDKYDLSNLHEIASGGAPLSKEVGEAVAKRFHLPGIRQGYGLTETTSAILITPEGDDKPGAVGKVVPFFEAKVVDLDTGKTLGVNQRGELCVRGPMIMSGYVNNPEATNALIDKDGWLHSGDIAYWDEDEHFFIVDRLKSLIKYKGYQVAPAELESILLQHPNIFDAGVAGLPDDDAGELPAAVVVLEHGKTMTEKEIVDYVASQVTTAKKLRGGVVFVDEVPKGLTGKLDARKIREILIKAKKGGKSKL
# Assay: qHTS profiling assay for firefly luciferase inhibitor/activator using purifed enzyme and Km concentrations of substrates (counterscreen for miR-21 project); also: nearly all actives have a fitted effect of over 55% in size;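 as to activity change, negative = inhibition: plate controls were vehicle for no effect and reference inhibitor for full effect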
# Details: purified FLuc, luminescence inhibition; series mostly up to 57.5 µM; activity change, negative = inhibition: at the top concentration
# Summary of the method: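 Purified P. pyralis luciferase, 10 nM final, with Km-level 10 uM D-luciferin and 10 uM ATP in 50 mM Tris acetate pH 7.5, 10 mM Mg acetate, 0.01% Tween-20, 0.05% BSA; 6-point qHTS titration about 60 µM downward; luminescence read.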
# Potency is read from the fitted curve at half-maximal effect; tags tell the direction and shape of the fitted curve.
SMILES,Potency,"activity change, negative = inhibition"
COc1cc(OC)c(NC(=O)c2oc3ccc4c(c3c2C)C(=O)CC(C)(C)O4)cc1Cl,active: 5.36 µM,–
COc1ccccc1NC(=O)NCCN1CCNC1=O,–,inactive: -2.08%
Cc1ccccc1-c1noc(N)c1C#N,–,inactive: -0.819%
O=C(O)c1cccc(NC(=O)c2cccc(S(=O)(=O)Nc3cccc(C(=O)O)c3)c2)c1,"inconclusive: 37.9 µM [inhibitor, partial curve, poor fit]",–
CC(C)c1ccc(C(=O)N/N=C/c2cccc(Cl)c2Cl)cc1,active: 8.49 µM,–
CC1(C)Cc2nc3sc(C(=O)NCCCO)c(N)c3cc2CO1,"inconclusive: 26.9 µM [inhibitor, single point]",–
NS(=O)(=O)c1cccc(NC(=O)Nc2ccccc2)c1,"inconclusive: 19 µM [inhibitor, partial curve]",–
CC(C)CN(c1ccccc1)S(=O)(=O)c1nnc(NC(=O)c2ccco2)s1,active: 0.849 µM,–
O=C(CCCC(=O)Nc1cccc(Br)c1)N/N=C/c1cc([N+](=O)[O-])ccc1O,–,inactive: -8.25%
Cc1nc2c(=O)[nH]c(=S)n(C)c2nc1C,"inconclusive: 33.8 µM [inhibitor, partial curve, poor fit]",–
COCCCNC(=O)Cn1c(=O)n(CCCC(=O)NCc2ccc(C)cc2)c(=O)c2ccccc21,–,inactive: -1.91%
CCN(CC)C(=O)COc1ccc(/C=C(\C#N)S(=O)(=O)c2ccccc2)cc1OC,–,inactive: 7.82%
CCCCCC(C)NC(=O)CN1C(=O)NC(C)(c2ccc3ccccc3c2)C1=O (stereo unspecified),"inconclusive: 37.9 µM [inhibitor, partial curve, poor fit]",–
CCN(C(=O)CN1C(=O)/C(=C/c2ccc(F)cc2)SC1=S)C1CCS(=O)(=O)C1 (stereo unspecified),"inconclusive: 26.9 µM [inhibitor, partial curve, poor fit]",–
O=C1CCC(=O)N1CCCCCc1nc(-c2ccccc2)no1,"inconclusive: 30.1 µM [inhibitor, single point]",–
O=C(Nc1ccccc1N1CCOCC1)c1cc2c(s1)CCCCC2,active: 4.78 µM,–
Cc1ccccc1NC(=O)Nc1ccc2c(c1)OCO2,"inconclusive: 2.69 µM [inhibitor, full curve]",–
CCN1CCN(c2ccc(NC(=O)c3cccc(N4CCCC4=O)c3)cc2)CC1,"inconclusive: 21.3 µM [inhibitor, single point]",–
N/C(=N/OC(=O)c1ccccc1Cl)c1nonc1N,active: 8.49 µM,–
O=C1OCc2cc(NC(=O)C34CC5CC(CC(C5)C3)C4)ccc21,"inconclusive: 16.9 µM [inhibitor, partial curve]",–
O=C(N/N=C/c1cc(O)ccc1Br)c1cccnc1,"inconclusive: 23.9 µM [inhibitor, single point]",–
O=C1CC(c2cc(-c3ccccc3)no2)C1,"inconclusive: 21.3 µM [inhibitor, partial curve, poor fit]",–
O=C(NCCc1ccccc1)c1ccc2nc(-c3ccco3)c(-c3ccco3)nc2c1,active: 21.3 µM,–

SMILES,Potency,"activity change, negative = inhibition"
Cc1ccc(OC(=O)c2ccc(C)c(C)c2)cn1,"inconclusive: 6.75 µM [inhibitor, partial curve, poor fit]",–
Cc1ccc(S(=O)(=O)N2CCN(C(=O)c3ccc(COc4ccccc4)o3)CC2)cc1,–,inactive: 0.358%
CCOc1ccc(CNC(=O)c2cccc(Nc3nc4ccccc4n4nnnc34)c2)cc1OC,–,inactive: 0.0001%
Cc1c(C(=O)NC2CCCCC2C)oc2ccccc12 (stereo unspecified),active: 13.5 µM,–
O=C(NNC(=S)NC(=O)c1ccco1)c1ccc(NC(=O)c2ccccc2)cc1,"inconclusive: 16.9 µM [inhibitor, partial curve, poor fit]",–
Cc1cccc(OCCNc2ccc(C(F)(F)F)cc2[N+](=O)[O-])c1,"inconclusive: 3.38 µM [inhibitor, full curve]",–
N#CC(C#N)=Cc1ccc(NC(=O)c2ccc(Br)cc2)cc1,"inconclusive: 8.49 µM [inhibitor, partial curve, poor fit]",–
C=CCOc1ccc(/C=C2\SC(=Nc3cccnc3)NC2=O)cc1,active: 7.57 µM,–
NNC(=O)c1ccc(Cn2cc(Br)cn2)o1,"inconclusive: 21.3 µM [inhibitor, partial curve, poor fit]",–
O=C(Nc1cccc(N2C(=O)C3CCCCC3C2=O)c1)c1ccccc1 (stereo unspecified),active: 19 µM,–
COc1cccc(C(=O)Nc2nc3ccc(S(C)(=O)=O)cc3s2)c1,active: 6.01 µM,–
O=C(O)CSc1nc2ccccc2nc1N1CCCCC1,"inconclusive: 15.1 µM [inhibitor, partial curve]",–
COc1ccc(-c2nc(C)ncc2N=Nc2ccccc2)cc1,"inconclusive: 37.9 µM [inhibitor, partial curve, poor fit]",–
COc1cccc(NC(=O)COC(=O)c2ccccc2C(=O)N(C)c2ccccc2)c1,"inconclusive: 26.9 µM [inhibitor, single point]",–
OCCCCNc1cccc2ccccc12,"inconclusive: 30.1 µM [inhibitor, partial curve, poor fit]",–
Cn1c(CNc2ccc(O)cc2)nc2ccccc21,active: 13.5 µM,–
O=C(N/N=C/c1cc2ccccc2[nH]1)c1ccccc1Cl,"inconclusive: 26.9 µM [inhibitor, single point]",–
Cn1ccnc1SCC(=O)Nc1ccc2c(c1)OCCO2,active: 23.9 µM,–
O=C(COC(=O)c1cc(-c2cccs2)nc2ccccc12)c1ccc(Cl)cc1,"inconclusive: 3.38 µM [inhibitor, full curve]",–
Cc1ccc(NS(=O)(=O)c2cc(NC(=O)c3ccc4c(c3)NC(=O)CS4)ccc2Cl)c(C)c1,"inconclusive: 37.9 µM [inhibitor, partial curve, poor fit]",–
O=C(Nc1ccccc1)OCCOc1ccccc1Br,"inconclusive: 16.9 µM [inhibitor, partial curve]",–
COc1cc2c(cc1NC(=O)CSc1nccn1C)oc1ccccc12,"inconclusive: 19 µM [inhibitor, partial curve]",–
O=C(NCC1CCCO1)c1cccc(NC(=O)c2ccc(Br)cc2)c1 (stereo unspecified),"inconclusive: 26.9 µM [inhibitor, single point]",–
